This note sets out measurements from PMC4336329 (PLoS ONE, 2015).

The structures appear in SMILES notation. Screen size: about 310,000 compounds; about 2,200 (0.71%) showed an effect of 50% or more. Effects have a minus sign here. The list shows a part of the results.

The target of this assay is human ether-à-go-go-related gene (hERG) potassium channel (human, UniProt Q12809). Put plainly: primary screen, population patch clamp on CHO cells stably expressing hERG.
Sequence of human ether-à-go-go-related gene (hERG) potassium channel (Q12809 whole entry, looked up): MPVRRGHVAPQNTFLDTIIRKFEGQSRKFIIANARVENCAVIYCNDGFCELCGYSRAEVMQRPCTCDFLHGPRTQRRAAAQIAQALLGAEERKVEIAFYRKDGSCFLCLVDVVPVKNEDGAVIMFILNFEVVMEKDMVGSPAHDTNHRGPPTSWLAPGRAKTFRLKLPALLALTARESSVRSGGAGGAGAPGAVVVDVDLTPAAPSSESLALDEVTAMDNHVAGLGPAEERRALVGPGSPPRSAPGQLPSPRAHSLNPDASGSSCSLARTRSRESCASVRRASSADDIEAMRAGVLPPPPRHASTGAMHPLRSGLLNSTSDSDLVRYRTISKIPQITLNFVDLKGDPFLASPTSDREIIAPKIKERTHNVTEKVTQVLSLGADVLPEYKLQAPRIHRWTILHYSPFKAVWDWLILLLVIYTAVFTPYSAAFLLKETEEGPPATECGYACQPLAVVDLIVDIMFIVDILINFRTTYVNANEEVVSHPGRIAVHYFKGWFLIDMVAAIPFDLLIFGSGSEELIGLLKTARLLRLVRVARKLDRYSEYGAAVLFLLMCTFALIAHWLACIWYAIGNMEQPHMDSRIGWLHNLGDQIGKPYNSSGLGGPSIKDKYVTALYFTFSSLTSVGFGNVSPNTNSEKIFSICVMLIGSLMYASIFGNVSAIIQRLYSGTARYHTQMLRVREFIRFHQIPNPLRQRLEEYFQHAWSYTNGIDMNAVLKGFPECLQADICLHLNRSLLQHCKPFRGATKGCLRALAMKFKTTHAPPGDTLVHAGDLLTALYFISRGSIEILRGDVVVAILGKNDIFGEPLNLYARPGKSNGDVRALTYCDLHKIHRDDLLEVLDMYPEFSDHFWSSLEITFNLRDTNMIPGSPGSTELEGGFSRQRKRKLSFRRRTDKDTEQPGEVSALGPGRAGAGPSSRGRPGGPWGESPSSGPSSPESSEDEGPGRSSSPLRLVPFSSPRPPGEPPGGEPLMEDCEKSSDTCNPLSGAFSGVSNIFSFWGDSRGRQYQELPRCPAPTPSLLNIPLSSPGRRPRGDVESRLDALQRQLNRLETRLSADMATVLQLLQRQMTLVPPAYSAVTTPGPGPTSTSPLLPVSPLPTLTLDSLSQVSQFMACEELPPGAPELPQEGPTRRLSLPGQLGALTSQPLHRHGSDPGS
Turning to `CCC(C)C(NC(=O)c1ccccc1NC(=O)c1ccccc1)C(=O)N1CCOCC1` (stereo not shown), the “hERG current change (%, negative = inhibition) at 1uM” value is reported as 8.6%.
`O=C(c1ccc(Br)cc1)C12CN3CN(CN(C3)C1)C2`: the “hERG current change (%, negative = inhibition) at 1uM” value is given as 27.7%.
As for `O=C(CSc1nnc2scc(-c3ccc(Cl)cc3)n12)NCc1ccc2c(c1)OCO2`, the “hERG current change (%, negative = inhibition) at 1uM” value is given as -0.194%.
With `CCCn1nc(C(=O)NNC(=O)c2cccc(S(=O)(=O)NC(C)C)c2)c2ccccc2c1=O`, the “hERG current change (%, negative = inhibition) at 1uM” value was 7.97%.
Take `COCCn1c(SCC(=O)OCc2ccccc2)nc2c1c(=O)[nH]c(=O)n2C`: the “hERG current change (%, negative = inhibition) at 1uM” value is given as -0.677%.
As for `O=C1CCC(C(=O)Nc2cccc(Oc3ccccc3)c2)=NN1`, the “hERG current change (%, negative = inhibition) at 1uM” value stood at 8.66%.
Regarding `CC(=O)Nc1ccc(C(=O)N/N=C/c2ccccc2OCc2ccccc2)cc1`, the “hERG current change (%, negative = inhibition) at 1uM” value stood at 15.9%.
For the compound `Cc1ccc(S(=O)(=O)NCCC(=O)NNC(=O)COc2ccc(Br)cc2)cc1C`, the “hERG current change (%, negative = inhibition) at 1uM” value worked out at 5.62%.
For the compound `O=C(c1ccc(S(=O)(=O)N2CCCC2)cc1)N1CCN(c2ccccc2F)CC1`, the “hERG current change (%, negative = inhibition) at 1uM” value was determined as 15.7%.
In the case of `O=C(CSc1nnc(-c2ccccc2F)o1)OCc1ccccc1`, the “hERG current change (%, negative = inhibition) at 1uM” value stood at 8.82%.
As for `Cc1ccc(-n2nc3c(c2NC(=O)/C=C\c2ccc4c(c2)OCO4)CSC3)cc1`, the “hERG current change (%, negative = inhibition) at 1uM” value came out at 13.5%.
Regarding `COC(=O)c1ccccc1NC(=O)CNC(=O)c1ccco1`, the “hERG current change (%, negative = inhibition) at 1uM” value is 11.6%.
With `CC(CCc1ccccc1)NC(=O)CN1CCN(Cc2ccc(Cl)cc2)C1=O` (stereo not shown), the “hERG current change (%, negative = inhibition) at 1uM” value is -10.1%.
As for `CC(=O)Nc1cc(C(F)(F)F)ccc1OCC1CCCO1` (stereo not shown), the figure is -0.903%.
As for `Cc1ccccc1C(=O)NNC(=O)C1CCN(C(=O)Nc2ccccc2)CC1`, the figure is 19.8%; as for `Cc1ccccc1Nc1c(-c2ccncc2)nc2ccc(Br)cn12`, 4.55%.
On to `COC(=O)Cc1n[nH]c(=O)c2ccccc12`, for which the “hERG current change (%, negative = inhibition) at 1uM” value turned out to be 16%.
With `COC(=O)c1ccc(NC(=O)CSCC(=O)OCC(=O)c2ccc(Br)cc2)cc1`, the “hERG current change (%, negative = inhibition) at 1uM” value turned out to be 6.29%.
For `COc1ccccc1C(=O)Oc1cc(C)[nH]c(=O)c1[N+](=O)[O-]`, the “hERG current change (%, negative = inhibition) at 1uM” value is 7.66%.
In the case of `Cc1cc(C)c(C#N)c(SCc2ccc(F)cc2)n1`, the “hERG current change (%, negative = inhibition) at 1uM” value was 13.1%.
In the case of `Cc1cc(=O)oc2c3c(cc(OCC(=O)NCC4CCC(C(=O)O)CC4)c12)OC(C)(C)CC3` (stereo not shown), the “hERG current change (%, negative = inhibition) at 1uM” value was -7.37%.
Consider `Cc1cc(C)c(C)c(S(=O)(=O)N2CCN(C(=O)c3ccccn3)CC2)c1C`, for which the “hERG current change (%, negative = inhibition) at 1uM” value turned out to be 4.34%.
As to `CCSc1nnc(NC(=O)COc2cccc3ccccc23)s1`, the “hERG current change (%, negative = inhibition) at 1uM” value is given as 19.5%.
In the case of `Cc1ccc(OCc2nnc(SCC(=O)Nc3ccc4c(c3)OCCO4)n2Cc2ccco2)cc1`, the “hERG current change (%, negative = inhibition) at 1uM” value came out at 12.6%.
In the case of `CCc1nc(C)c(C#N)c2cc(OC)c(OC)cc12`, the “hERG current change (%, negative = inhibition) at 1uM” value is 7.54%.
As for `CC1CCCN(C(=O)CSc2nnc(-c3cccnc3)n2C2CCCCC2)C1` (stereo not shown), the figure is 0.137%; as for `CCOC(=O)N1CCN(CCC(=O)Nc2cc(C)ccc2OC)CC1.Cl`, 1.39%.
Consider `COc1ccc(CCC(=O)NCCc2cnc[nH]2)cc1`, for which the “hERG current change (%, negative = inhibition) at 1uM” value was 13.2%.
With `O=C(CN1C(=O)NC2(CCCC2)C1=O)N1CCN(S(=O)(=O)c2cccc(C(F)(F)F)c2)CC1`, the “hERG current change (%, negative = inhibition) at 1uM” value worked out at 9.9%.
For `CC1(C)CC(=O)C=C(Nc2cccc(C(F)(F)F)c2)C1` the value was 5.68%.
`C[C@@H](C(=O)Nc1ccc2ccccc2c1)[C@@H]1C[C@@]1(C)[C@@H](NC(=O)OCc1ccccc1)c1ccccc1`: the “hERG current change (%, negative = inhibition) at 1uM” value stood at 14.3%.
As for `CCCn1c(C)cc(/C=C(\C#N)C(=O)OCC(=O)NC(=O)NCC)c1C`, the “hERG current change (%, negative = inhibition) at 1uM” value is listed as 4.57%.
`CN(Cc1cc2ccccc2[nH]c1=O)S(C)(=O)=O`: the “hERG current change (%, negative = inhibition) at 1uM” value worked out at 7.56%.
For `COc1ccccc1N1CCN(C(=O)c2cccc(S(=O)(=O)NCc3cccnc3)c2)CC1`, the “hERG current change (%, negative = inhibition) at 1uM” value turned out to be 10.1%.
As to `COc1cc(OC)cc(-c2c(-c3cccs3)c3cc(-c4ccc5[nH]ccc5c4)ccc3n2C)c1`, the “hERG current change (%, negative = inhibition) at 1uM” value came to 15.2%.
Regarding `COc1ccc(C(=O)Nc2n[nH]c(-c3ccncc3)n2)cc1`, the “hERG current change (%, negative = inhibition) at 1uM” value came out at 5.91%.
For `COc1ccccc1-c1ccc(=O)n(CC(=O)NC2CCc3ccccc32)n1` (stereo not shown) the value was 6.04%; for `Br.NC1CCc2cc(O)c(O)cc2C1` (stereo not shown), 11.8%; for `COc1cc(/C=N/NC(=O)c2cc(-c3ccccc3Cl)nc3ccccc23)cc(OC)c1O`, 15.9%.
With `COc1ccc(CCNC(=O)COC(=O)CNS(=O)(=O)c2ccc(SC)c([N+](=O)[O-])c2)cc1`, the “hERG current change (%, negative = inhibition) at 1uM” value is on record as 9.76%.
For `CCNc1nc(NC(C)C)nc(N(C#N)CCOc2ccc(Cl)cc2Cl)n1` the value was 7.93%.
For `CCCC/S(CC1CC1(Cl)Cl)=N\S(=O)(=O)c1ccc(C)cc1` (stereo not shown), the “hERG current change (%, negative = inhibition) at 1uM” value is -1.13%.
Regarding `Nc1nc(Nc2ccccc2F)sc1C(=O)c1ccccc1`, the “hERG current change (%, negative = inhibition) at 1uM” value amounted to 17.5%.
